# Data reported in ChEMBL document CHEMBL4888484, “Replenishing the malaria drug discovery pipeline: Screening and hit evaluation of the MMV Hit Generation Library 1 (HGL1) against asexual blood stage Plasmodium falciparum ,using a nano luciferase reporter read-out” (2022).
# Out of some 150,000 compounds screened, about 540 (0.36%) showed an effect of 50% or more. The list shows a part of the results.
# Tested on: Plasmodium falciparum
# Assay: Primary screen in NF54 nanoGlo assay, in single point, at 2uM, 72h; a lower Z score goes with more inhibition
# Format: functional, Erythrocyte
# Conditions: timepoint 72 hour
SMILES,% Inhibition [%],Z score
CC(C)CCc1n[nH]c(CCCc2cn[nH]c2)n1,-1,0.21
NS(=O)(=O)[C@H]1CCN(C(=O)C2CCC(F)(F)CC2)C1,-10,1.31
O=C(NC1CCC(O)CC1)N1CCC[C@H]1c1nc2ccccc2s1 (stereo partly specified),-1,0.24
CNC(=O)c1ccc(OC(=O)c2c(C(C)C)nn(C)c2Cl)cc1,-6,0.81
Cn1c(C(F)(F)F)nn(C2CCN(Cc3cccnc3)CC2)c1=O,-5,0.58
Cc1ccc(-n2nnnc2C2(NC(C)C)CCCC2)cc1,-3,0.43
Cc1cccnc1C(NC(=O)NC1CCCN(S(C)(=O)=O)C1)C(C)C (stereo unspecified),-14,1.39
Cc1cc(=O)[nH]c(N2CCC(NC(=O)NCc3ccco3)CC2)n1,-6,1.07
Cc1ccc(CN2CCC3(CC2)C[C@@H](C(=O)NCc2ccccn2)N(C)C3)s1,35,-0.88
Cc1nc(CN2CCN(c3cccc(Cl)c3)CC2)[nH]c1C,-1,0.12
Cc1ccc([C@]2(C)NC(=O)N(Cc3nnsc3Cl)C2=O)o1,-4,0.76
Cc1cc(Cl)ccc1-n1cnc(=O)n1CC(=O)NC1CC1,-5,0.83
OC1(c2nc(-c3ccccn3)no2)CCCCC1,-1,0.08
NC(=O)c1cccnc1N1CC[C@@]2(CCCN(CC3CCCCC3)C2)C1,3,-0.5
C[C@H](NC(=O)N1CCC2(CCOCC2)C1)c1ccc(F)cc1Cl,-3,0.39
CC1(C)C(NCC2CCCCN2S(C)(=O)=O)[C@@H]2CCC[C@@H]21 (stereo partly specified),-5,0.77
CC1(CNC(=O)[C@@H](N)CCCNC(N)=O)CCCCC1,-9,0.97
COC(=O)[C@@H](C)NC(=O)c1coc(C)n1,5,-0.68
Nc1nc2c(c(C(=O)N3CCC(c4nc5ccccc5o4)CC3)n1)CCCC2,-13,1.73
Cc1ccc(C(C)(C)CN(C)C(=O)c2nc3n(n2)CCCN3)cc1,14,-1.75
CCn1ncnc1CN(C)Cc1n[nH]c2c1CCC2,-5,0.69
C=CCCN[C@@H](C)c1ccc(S(C)(=O)=O)c(F)c1,-3,0.57

SMILES,% Inhibition [%],Z score
Cc1ccc(C2(Nc3ncc(F)c(N(C)C)n3)CC2)cc1,13,-1.81
CC(C)c1nc(CN(C)c2nc3c(c(=O)[nH]2)CCNCC3)cs1,-9,1.68
CN1C[C@@H](c2ccccc2)CC2(CCN(C(=O)c3ccc(C#N)cc3)CC2)C1,4,-0.76
Cc1ccc(Nc2nc(NCc3ccccn3)nc3[nH]ncc23)cc1C,1,-0.1
N#Cc1cnc(OC2CCC2)c(Cl)c1,0,0.03
CCCc1nnc(NC(=O)[C@@H]2Cc3ccccc3C(=O)O2)s1,-8,1.31
Cc1nn(C)c(C)c1CC(=O)N(CC1CCCCC1)c1ccccn1,-9,0.99
CCN(CC(=O)Nc1c(C)cccc1C)C(=O)[C@H]1CCCOC1,-6,0.77
Clc1ccc(NCc2nccs2)cc1-n1nnnc1C1CC1,7,-0.84
CCN(CC1CCOC1)C(=O)C1CCN(c2ccc(Cl)c(Cl)c2)C1=O (stereo unspecified),7,-1.02
COc1ccc(-c2cnc3nc(C)[nH]c3c2)c(-n2cccn2)c1,8,-1.74
C=CCOc1ccccc1CN[C@H]1C[C@@H](C(=O)NCC)N(Cc2ccccc2Cl)C1,-16,2.08
COC(=O)CC(C)(C)C(=O)NC[C@H]1CCCN1S(C)(=O)=O,8,-0.76
CCCc1cc(C(=O)NC[C@H](O)c2cccnc2)no1,-7,1.27
Cc1nnc(N2CCc3c(cccc3C(F)(F)F)C2)n1C,-8,0.8
O=C(Cc1ccccc1)N1CCN(S(=O)(=O)c2ccco2)CC1,-6,0.75
COCCN1C(=O)C2C(C)NC3(C(=O)Nc4c(C)cc(C)cc43)C2C1=O (stereo unspecified),-8,1.05
Cc1ccc(N(C)C(C)C)c(C(=O)NC[C@H]2OCCN(C)[C@@H]2c2cnn(C)c2)c1,2,-0.4
N#Cc1ccc(N2CC3CC=CCC3C2)nc1 (stereo unspecified),-14,2.32
O=C(c1cnc2c(F)cc(F)cc2c1O)N1CCOCC2(CC2)C1,-9,1
CCC(C)C(C(=O)Nc1n[nH]c(-c2cccs2)n1)n1cnnn1 (stereo unspecified),-4,0.53
